Some of the results follow. These are further read-outs of the screen, such as a control signal, another cell line or another target. No call is given for them. The list favours compounds with an active or inconclusive main result.
Experiment: growth inhibition of WT strain, primary screen, mitochondrial fusion inhibitor project, WT and mutant strains, chemical genetic (AID 1362); further: tested in S. cerevisiae
Conditions: mitochondrial fusion phenotypic screen, at 10 µM
Compound Cc1nn(C(C)(C)C)c(OC(=O)c2ccc3c(c2)OCO3)c1Sc1ccccc1 has an inhibition of 7.78%.
CCc1cccc(NC(=S)N2CCC(c3ccccc3)C2)c1 (stereo not given) showed an inhibition of 70.8%.
Work on Cc1ccc(C)c(NC(=S)NCCSc2ccc(Cl)cc2)c1 yielded an inhibition of 28.4%.
With COc1ccc(NS(=O)(=O)c2cc(C(=O)O)ccc2C)cc1 the inhibition was -2.35%.
O=C(Oc1cc2oc(=O)c3c(c2cc1Cl)CCCC3)c1cccs1 gave an inhibition of 46.6%.
CC(C)c1nc(N2CCOCC2)c(C#N)c2c1CCCC2 gave an inhibition of 40%.
For COc1nc(Nc2ccc([N+](=O)[O-])cc2)nc(NC2CCCCC2)n1, the inhibition was 43.2%.
Cc1cc(C)c(NC(=S)NCCCSC2CCCCC2)c(C)c1 gave an inhibition of 46.3%.
Cc1cc(N2CCN(C)CC2)nc2ccc(NC(=S)N3CCN(c4ccc(Cl)cc4)CC3)cc12 showed an inhibition of 96.9%.
For FC(F)(F)c1ccc(Oc2ccc3ccccc3c2Br)nc1, the inhibition was 25.8%.
Compound Cc1cccc(NC(=O)N(Cc2nc3ccccc3c(=O)[nH]2)C2CCCC2)c1 has an inhibition of 7.06%.
N/C(Cc1ccc(Cl)cc1)=N\OC(=O)c1cccc2ccccc12 showed an inhibition of 91.4%.
C=C(C)c1cccc(C(C)(C)NC(=O)Nc2ccc(Cl)cn2)c1 gave an inhibition of 17.5%.
S=C(NCCSCc1ccccc1Cl)Nc1ccccc1 gave an inhibition of 38.7%.
With CCCC(=O)NC(=S)Nc1cccc(Cl)c1N1CCCCC1 the inhibition was 10.4%.
Compound Clc1ccc(CNc2nc(CN3CCOCC3)nc3scc(-c4ccccc4)c23)cc1 has an inhibition of 17.6%.
Compound Cc1nn(CCC(N)=S)c2nc(-c3cccs3)cc(C(F)(F)F)c12 has an inhibition of 18.6%.
O=S(=O)(NCC(Nc1ccc(Cl)cc1)c1ccccc1)c1ccc(Cl)cc1 (stereo not given) showed an inhibition of 7.18%.
Work on COCCCNC(=O)c1cccc(C(=O)NCCCOC)c1 yielded an inhibition of 5.98%.
Work on COC(=O)c1c(NC(=O)c2nc3nc(C)cc(C(F)F)n3n2)sc2c1CCC2 yielded an inhibition of 15.5%.
For COc1cc2c(cc1OC)-c1cc3ccc4c(c3c[n+]1CC2)OCO4, the inhibition was 59.2%.
COc1ccccc1-c1nnc(SCC(=O)NCc2c(C)c(Cl)cc(C(C)C)c2O)o1 showed an inhibition of 4.39%.
C=CCn1c(=S)[nH]c2scc(-c3ccc(C)o3)c2c1=O gave an inhibition of 27.2%.
Compound O=C(CCSCc1ccccc1Cl)N1CCN(c2cccc(Cl)c2)CC1 has an inhibition of 38.5%.
For O=C(Nc1ccccc1N1CCOCC1)c1cc(F)cc(F)c1, the inhibition was 66%.
Cc1ccc(NC(=S)N(Cc2cccc(Br)c2)CC2CCC(C(=O)O)CC2)cc1Cl (stereo not given) gave an inhibition of 13.1%.
Work on Cc1nc2cc(NS(=O)(=O)c3c(C)c(C)cc(C)c3C)ccc2s1 yielded an inhibition of 23.8%.
In the case of Cc1ccc(C)c(N=Nc2nc3ccccc3n2C)c1, the inhibition is reported as 67.4%.
With C=CCNC(=S)N/N=C/c1ccc(C(C)(C)C)cc1 the inhibition was 60.2%.
Compound CC(C)c1ccc(C2CC(=O)c3cnc(N4CCc5ccccc5C4)nc3C2)cc1 (stereo not given) has an inhibition of 51.9%.
With O=C(CSc1nnnn1-c1ccc(Cl)cc1)N1CCc2ccccc2C1 the inhibition was 81%.
Work on O=C(N/N=C/c1ccc[nH]1)c1cc(-c2ccc(Cl)cc2)nc2ccccc12 yielded an inhibition of 39.8%.
Work on Cc1cc(N=Cc2cc(Cl)ccc2O)no1 yielded an inhibition of 4.67%.
O=[N+]([O-])c1ccc(COc2ccc(-c3[nH]ncc3-c3ccc(Cl)cc3)c(O)c2)cc1 gave an inhibition of 90.3%.
With CCN1/C(=C/c2ccc3ccccc3[n+]2CC)C=Cc2ccccc21 the inhibition was 75.8%.
In the case of O=[N+]([O-])c1cccnc1N1CCC(c2cc(-c3cccc(C(F)(F)F)c3)n[nH]2)CC1, the inhibition is reported as 33.9%.
C=C(C)COc1ccc(-c2nc(N)nc(C)c2Oc2ccccc2OC)c(O)c1 gave an inhibition of 58.9%.
C(=N\N(Cc1ccccc1)c1ccccc1)/c1cccnc1 gave an inhibition of 28.5%.
Compound CCN(Cc1ccccc1)C(c1cccs1)c1nnnn1C1CCCCC1 (stereo not given) has an inhibition of 14.4%.
S=C(Nc1ccc(Cl)cc1)Nc1cccc2cnccc12 showed an inhibition of 50.4%.
For Cn1c(-c2sc3cc(C(F)(F)F)cnc3c2-c2cccs2)n[nH]c1=S, the inhibition was 35.4%.
Compound Cc1csc(=Nc2cccnc2)n1CC1CCCCC1 has an inhibition of 46.1%.
For Cc1ccccc1CN1CCc2c(OCC(=O)N3CCCc4ccccc43)cccc2C1=O, the inhibition was 29.8%.
Compound CSc1nncn1/N=C/c1ccc2c(c1)OCO2 has an inhibition of 0.91%.
With O=C(O)c1cc(-c2ccc(/C=C3/SC(=S)N(Cc4ccccc4)C3=O)o2)ccc1Cl the inhibition was 32.2%.
N#CC(c1cccc(Cl)c1)c1ccc2c(C(F)(F)F)cc(C(F)(F)F)nc2n1 (stereo not given) gave an inhibition of 80%.
In the case of O=c1cc(N2CCCCC2)c(-c2ccccc2)nn1Cc1c(Cl)cccc1Cl, the inhibition is reported as 33.2%.
Work on Cc1ccc(NC(=S)Nc2ccc(OC(F)F)c(Cl)c2)cc1Cl yielded an inhibition of 36.1%.
In the case of O=C1Nc2ccc(Br)cc2C12NNc1ccccc1O2 (stereo not given), the inhibition is reported as 82%.
In the case of O=C(OC(C(=O)Nc1cc(Cl)cc(Cl)c1)c1ccccc1)C1=COCCO1 (stereo not given), the inhibition is reported as 23.1%.
O=C(N/N=C/c1ccccn1)c1[nH]c2ccc([N+](=O)[O-])cc2c1-c1ccccc1 showed an inhibition of 18.8%.
CCCCN(CC)S(=O)(=O)c1ccc(C(=O)N(CCCN(C)C)c2nc3cc(C)cc(C)c3s2)cc1 gave an inhibition of 68.5%.
For COc1ccc(CC(=O)N2CCOCC2)cc1OC, the inhibition was 16.6%.
With CC(C)Oc1ccc(C(=O)Nc2cccc3cccnc23)cc1 the inhibition was 40%.
O=C(/C(=C/O)N=Nc1ccccc1)c1ccc(Cl)cc1 showed an inhibition of 25%.
Compound Cc1ccc(OCC(=O)N2CCN(c3nnc(-c4ccc(C)cc4)c4ccccc34)CC2)cc1 has an inhibition of 50.2%.
In the case of CCOC(=O)C1(S(=O)(=O)c2ccc(Cl)cc2)CCN(Cc2ccc(Cl)cc2)CC1, the inhibition is reported as 60.2%.
O=C(COc1ccc(Cl)cc1Cl)Nc1ccccn1 showed an inhibition of 61.1%.
Compound Cc1nn(-c2cc(C)c3ccccc3n2)c2c1C1C(C2)C1(C)C (stereo not given) has an inhibition of -0.27%.
In the case of OCCNCc1cc(Br)ccc1OCc1ccc(Cl)cc1Cl, the inhibition is reported as 33.2%.
In the case of O=C(NCCCN1CCOCC1)c1ccccc1-c1ccccc1, the inhibition is reported as -5.93%.
Work on CCOC(=O)C(C)c1nc2ccccc2[nH]c1=O (stereo not given) yielded an inhibition of 13.6%.
Cc1cccc(CN2CCN(C(c3ccccc3)c3ccc(Cl)cc3)CC2)c1 (stereo not given) showed an inhibition of 56.8%.
For CCNc1nc(Sc2ccc(C)cc2)cc(C(F)(F)F)n1, the inhibition was 46.5%.
Cc1cccc(C(=O)CC(=O)c2cc(Cl)ccc2O)c1 gave an inhibition of 56.2%.
Compound COc1ccc(-c2nc3ccccc3s2)cc1O has an inhibition of 0.14%.
CC[n+]1ccc(/C=C/c2ccc(N(C)C)cc2)c2ccccc21 showed an inhibition of 83.5%.
With CC(C)C(=O)NCCc1nc2ccccc2n1CCCOc1ccc(Cl)cc1 the inhibition was 2.99%.
Work on O=C(Nn1c(C2CCCCC2)nc2ccccc2c1=O)c1ccc(Cl)c([N+](=O)[O-])c1 yielded an inhibition of 22.4%.
For CSc1nc(C(=O)N2CCc3c([nH]c4ccccc34)C2c2ccccn2)cs1 (stereo not given), the inhibition was 39.9%.
